This is one part of the list.
Key:
Test in all cases: glycan array binding signal (z-score within array); higher = stronger binding
Conditions in all cases: glycan notation: IUPAC condensed, linker removed
[1] = target: GlcNAc(b1-3)Gal(b1-4)Glc
In short: (§1)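 The binding signal is a Z-score computed within each array and averaged over linkers. Arrays of the same protein sequence at different concentrations or buffers were also averaged together. Data originate from 3228 arrays in the Consortium for Functional Glycomics database, kept only where the protein sequence was available.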

[2] = target: GlcNAc(b1-3)Gal(b1-4)GlcNAc
In short: as §1

[3] = target: GlcNAc(b1-3)Gal(b1-4)GlcNAc(b1-2)Man(a1-3)[GlcNAc(b1-3)Gal(b1-4)GlcNAc(b1-2)Man(a1-6)]Man(b1-4)GlcNAc(b1-4)GlcNAc
In short: as §1

[4] = target: GlcNAc(b1-3)Gal(b1-4)GlcNAc(b1-2)Man(a1-3)[GlcNAc(b1-3)Gal(b1-4)GlcNAc(b1-2)Man(a1-6)]Man(b1-4)GlcNAc(b1-4)[Fuc(a1-6)]GlcNAc
In short: as §1

[5] = target: GlcNAc(b1-3)Gal(b1-4)GlcNAc(b1-2)[GlcNAc(b1-3)Gal(b1-4)GlcNAc(b1-6)]Man(a1-6)[GlcNAc(b1-3)Gal(b1-4)GlcNAc(b1-2)Man(a1-3)]Man(b1-4)GlcNAc(b1-4)GlcNAc
In short: as §1

[6] = target: GlcNAc(b1-3)Gal(b1-4)GlcNAc(b1-3)Gal(b1-4)GlcNAc
In short: as §1

[7] = target: GlcNAc(b1-3)Gal(b1-4)GlcNAc(b1-3)Gal(b1-4)GlcNAc(b1-2)Man(a1-3)[GlcNAc(b1-3)Gal(b1-4)GlcNAc(b1-3)Gal(b1-4)GlcNAc(b1-2)Man(a1-6)]Man(b1-4)GlcNAc(b1-4)GlcNAc
In short: as §1

[8] = target: GlcNAc(b1-3)Gal(b1-4)GlcNAc(b1-3)Gal(b1-4)GlcNAc(b1-2)Man(a1-3)[GlcNAc(b1-3)Gal(b1-4)GlcNAc(b1-3)Gal(b1-4)GlcNAc(b1-2)Man(a1-6)]Man(b1-4)GlcNAc(b1-4)[Fuc(a1-6)]GlcNAc
In short: as §1

[9] = target: GlcNAc(b1-3)Gal(b1-4)GlcNAc(b1-3)Gal(b1-4)GlcNAc(b1-2)[GlcNAc(b1-3)Gal(b1-4)GlcNAc(b1-3)Gal(b1-4)GlcNAc(b1-6)]Man(a1-6)[GlcNAc(b1-3)Gal(b1-4)GlcNAc(b1-3)Gal(b1-4)GlcNAc(b1-2)Man(a1-3)]Man(b1-4)GlcNAc(b1-4)[Fuc(a1-6)]GlcNAc
In short: as §1

[10] = target: GlcNAc(b1-3)Gal(b1-4)GlcNAc(b1-3)Gal(b1-4)GlcNAc(b1-3)Gal(b1-4)GlcNAc(b1-2)Man(a1-3)[GlcNAc(b1-3)Gal(b1-4)GlcNAc(b1-3)Gal(b1-4)GlcNAc(b1-3)Gal(b1-4)GlcNAc(b1-2)Man(a1-6)]Man(b1-4)GlcNAc(b1-4)GlcNAc
In short: as §1

[11] = target: GlcNAc(b1-3)Gal(b1-4)GlcNAc(b1-3)Gal(b1-4)GlcNAc(b1-3)Gal(b1-4)GlcNAc(b1-2)Man(a1-3)[GlcNAc(b1-3)Gal(b1-4)GlcNAc(b1-3)Gal(b1-4)GlcNAc(b1-3)Gal(b1-4)GlcNAc(b1-2)Man(a1-6)]Man(b1-4)GlcNAc(b1-4)[Fuc(a1-6)]GlcNAc
In short: as §1

[12] = target: GlcNAc(b1-3)Gal(b1-4)GlcNAc(b1-3)Gal(b1-4)GlcNAc(b1-3)Gal(b1-4)GlcNAc(b1-2)[GlcNAc(b1-3)Gal(b1-4)GlcNAc(b1-3)Gal(b1-4)GlcNAc(b1-3)Gal(b1-4)GlcNAc(b1-6)]Man(a1-6)[GlcNAc(b1-3)Gal(b1-4)GlcNAc(b1-3)Gal(b1-4)GlcNAc(b1-3)Gal(b1-4)GlcNAc(b1-2)Man(a1-3)]Man(b1-4)GlcNAc(b1-4)[Fuc(a1-6)]GlcNAc
In short: as §1

[13] = target: GlcNAc(b1-3)Gal(b1-4)GlcNAc(b1-3)Gal(b1-4)GlcNAc(b1-3)Gal(b1-4)GlcNAc(b1-3)Gal(b1-4)GlcNAc(b1-2)Man(a1-3)[GlcNAc(b1-3)Gal(b1-4)GlcNAc(b1-3)Gal(b1-4)GlcNAc(b1-3)Gal(b1-4)GlcNAc(b1-3)Gal(b1-4)GlcNAc(b1-2)Man(a1-6)]Man(b1-4)GlcNAc(b1-4)GlcNAc
In short: as §1

[14] = target: GlcNAc(b1-3)Gal(b1-4)GlcNAc(b1-3)Gal(b1-4)GlcNAc(b1-3)Gal(b1-4)GlcNAc(b1-3)Gal(b1-4)GlcNAc(b1-2)Man(a1-3)[GlcNAc(b1-3)Gal(b1-4)GlcNAc(b1-3)Gal(b1-4)GlcNAc(b1-3)Gal(b1-4)GlcNAc(b1-3)Gal(b1-4)GlcNAc(b1-2)Man(a1-6)]Man(b1-4)GlcNAc(b1-4)[Fuc(a1-6)]GlcNAc
In short: as §1

[15] = target: GlcNAc(b1-3)Gal(b1-4)GlcNAc(b1-3)Gal(b1-4)GlcNAc(b1-3)Gal(b1-4)GlcNAc(b1-3)Gal(b1-4)GlcNAc(b1-2)[GlcNAc(b1-3)Gal(b1-4)GlcNAc(b1-3)Gal(b1-4)GlcNAc(b1-3)Gal(b1-4)GlcNAc(b1-3)Gal(b1-4)GlcNAc(b1-6)]Man(a1-6)[GlcNAc(b1-3)Gal(b1-4)GlcNAc(b1-3)Gal(b1-4)GlcNAc(b1-3)Gal(b1-4)GlcNAc(b1-3)Gal(b1-4)GlcNAc(b1-2)Man(a1-3)]Man(b1-4)GlcNAc(b1-4)[Fuc(a1-6)]GlcNAc
In short: as §1

[16] = target: GlcNAc(b1-3)Gal(b1-4)GlcNAc(b1-3)Gal(b1-4)GlcNAc(b1-3)GalNAc
In short: as §1

[17] = target: GlcNAc(b1-3)Gal(b1-4)GlcNAc(b1-3)GalNAc
In short: as §1

[18] = target: GlcNAc(b1-3)Gal(b1-4)GlcNAc(b1-3)[GlcNAc(b1-3)Gal(b1-4)GlcNAc(b1-3)]GalNAc
In short: as §1

[19] = target: GlcNAc(b1-3)Gal(b1-4)GlcNAc(b1-6)[Gal(b1-3)]GalNAc
In short: as §1

[20] = target: GlcNAc(b1-3)Gal(b1-4)GlcNAc(b1-6)[GlcNAc(b1-3)Gal(b1-3)]GalNAc
In short: as §1

[21] = target: GlcNAc(b1-3)Gal(b1-4)GlcNAc(b1-6)[GlcNAc(b1-3)]Gal(b1-4)GlcNAc
In short: as §1

[22] = target: GlcNAc(b1-3)GalNAc
In short: as §1

[23] = target: GlcNAc(b1-3)Man
In short: as §1

[24] = target: GlcNAc(b1-3)[GlcNAc(b1-4)][GlcNAc(b1-6)]GlcNAc
In short: as §1

[25] = target: GlcNAc(b1-3)[GlcNAc(b1-6)]Gal(b1-4)GlcNAc
In short: as §1

[26] = target: GlcNAc(b1-3)[GlcNAc(b1-6)]GalNAc
In short: as §1

[27] = target: GlcNAc(b1-4)Gal(b1-4)GlcNAc
In short: as §1

[28] = target: GlcNAc(b1-4)GlcNAc
In short: as §1

[29] = target: GlcNAc(b1-4)GlcNAc(b1-4)GlcNAc
In short: as §1

[30] = target: GlcNAc(b1-4)GlcNAc(b1-4)GlcNAc(b1-4)GlcNAc(b1-4)GlcNAc
In short: as §1

[31] = target: GlcNAc(b1-4)GlcNAc(b1-4)GlcNAc(b1-4)GlcNAc(b1-4)GlcNAc(b1-4)GlcNAc
In short: as §1

[32] = target: GlcNAc(b1-4)[GlcNAc(b1-6)]GalNAc
In short: as §1

[33] = target: GlcNAc(b1-6)Gal(b1-4)GlcNAc
In short: as §1

[34] = target: GlcNAc(b1-6)GalNAc
In short: as §1

[35] = target: GlcNAc6S(b1-3)Gal(b1-4)GlcNAc
In short: as §1

[36] = target: Kdn(a2-3)Gal(b1-3)GalNAc
In short: as §1

[37] = target: Kdn(a2-3)Gal(b1-3)GlcNAc
In short: as §1

[38] = target: Kdn(a2-3)Gal(b1-4)Glc
In short: as §1

[39] = target: Kdn(a2-3)Gal(b1-4)GlcNAc
In short: as §1

[40] = target: Kdn(a2-3)Gal(b1-4)[Fuc(a1-3)]GlcNAc
In short: as §1

[41] = target: Kdn(a2-6)Gal(b1-4)GlcNAc
In short: as §1

[42] = target: Man(a1-2)Man(a1-2)Man(a1-3)Man
In short: as §1

[43] = target: Man(a1-2)Man(a1-2)Man(a1-6)[Man(a1-3)]Man
In short: as §1

[44] = target: Man(a1-2)Man(a1-3)Man
In short: as §1

[45] = target: Man(a1-2)Man(a1-3)[Man(a1-2)Man(a1-6)]Man
In short: as §1

B1: AT1G15820(NC) (Arabidopsis thaliana) (protein)
chain: MAMAVSGAVLSGLGSSFLTGGKRGATALASGVGDAIAPFSFGSLLGTQLLLMGWVESKRWVDFFNPDSQSVEWATPWSKTAENFANYTGDQGYPGGRFFDPLGLAGKNRDGVYEPDFEKLERLKLAEIKHSRLAMVAMLIFYFEAGQGKTPLGALGL
[1]
  glycan array binding signal (z-score): -0.035
[2]
  glycan array binding signal (z-score): -0.443
[3]
  glycan array binding signal (z-score): -0.12
[4]
  glycan array binding signal (z-score): 0.859
[5]
  glycan array binding signal (z-score): 0.582
[6]
  glycan array binding signal (z-score): -0.359
[7]
  glycan array binding signal (z-score): 0.73
[8]
  glycan array binding signal (z-score): 2.99
[9]
  glycan array binding signal (z-score): -0.179
[10]
  glycan array binding signal (z-score): -0.268
[11]
  glycan array binding signal (z-score): 1.6
[12]
  glycan array binding signal (z-score): 1.05
[13]
  glycan array binding signal (z-score): 0.65
[14]
  glycan array binding signal (z-score): 0.078
[15]
  glycan array binding signal (z-score): 0.02
[16]
  glycan array binding signal (z-score): -0.327
[17]
  glycan array binding signal (z-score): 2.84
[18]
  glycan array binding signal (z-score): 0.146
[19]
  glycan array binding signal (z-score): -0.119
[20]
  glycan array binding signal (z-score): -0.066
[21]
  glycan array binding signal (z-score): -0.162
[22]
  glycan array binding signal (z-score): 0.177
[23]
  glycan array binding signal (z-score): 0.078
[24]
  glycan array binding signal (z-score): 0.571
[25]
  glycan array binding signal (z-score): -0.619
[26]
  glycan array binding signal (z-score): -0.502
[27]
  glycan array binding signal (z-score): 0.405
[28]
  glycan array binding signal (z-score): -0.216
[29]
  glycan array binding signal (z-score): -0.628
[30]
  glycan array binding signal (z-score): 4.7
[31]
  glycan array binding signal (z-score): -0.28
[32]
  glycan array binding signal (z-score): 1.03
[33]
  glycan array binding signal (z-score): -0.583
[34]
  glycan array binding signal (z-score): -0.166
[35]
  glycan array binding signal (z-score): -0.58
[36]
  glycan array binding signal (z-score): 0.004
[37]
  glycan array binding signal (z-score): -0.204
[38]
  glycan array binding signal (z-score): 0.303
[39]
  glycan array binding signal (z-score): -0.049
[40]
  glycan array binding signal (z-score): 0.012
[41]
  glycan array binding signal (z-score): 0.229
[42]
  glycan array binding signal (z-score): -0.884
[43]
  glycan array binding signal (z-score): 0.045
[44]
  glycan array binding signal (z-score): -0.501
[45]
  glycan array binding signal (z-score): -0.617

Reference: the supplement of paper PMC8728848
